Assay results as given in PubChem BioAssay AID2546 (National Center for Advancing Translational Sciences (NCATS), 2010).
About 11,000 (3.5%) of roughly 310,000 compounds were called active. The shares of active, inactive and inconclusive entries below differ from those in the screen. Calls come from the whole dose curve; as a rule, active = well fitted inhibition curve with a large enough effect; inconclusive = small, poorly fitted or top-dose-only effect, or effect the other way; inactive = flat fitted curve, though single readings scatter. No potency is given beside an inconclusive call; the fits are too rough.

Assay: VP16 counterscreen qHTS for inhibitors of ROR gamma transcriptional activity;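 note: Gal4-VP16 expression switched on by copper sulfate through the metallothionein promoter; nearly all actives have a fitted effect of over 50% in size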
Conditions: Drosophila S2 Gal4-VP16 UAS-luciferase, luminescence, 20 h; activity, negative = inhibition: at 53.6 µM (top of the series)
% is set by controls: 0 for no effect and ±100 for the full control effect; potency is the fitted concentration of half-maximal effect; tags give direction and shape of the fitted curve.

SMILES | Potency | activity, negative = inhibition
O=C1NC(=S)N/C1=C\c1cccnc1 | inconclusive [inhibitor, single point] | –
COc1cccc(C(=O)/C=C/Nc2ccc(S(=O)(=O)Nc3ccc(C(C)=O)cc3)cc2)c1 | – | inactive: -18.2%
Cn1cc(S(=O)(=O)N2CCc3ccccc32)cc1C(=O)NC(C)(C)C | active: 5.01 µM | –
CCNc1nc(NCC)nc(N(C#N)CCOc2ccccc2)n1 | – | inactive: 7.43%
COc1cc(/C=C/C(=O)c2ccc(C)cc2)ccc1OCC#N | inconclusive [inhibitor, partial curve, poor fit] | –
CCOC(=O)c1c(N)sc(C(O)(C(F)(F)F)C(F)(F)F)c1-c1ccc(F)cc1 | inconclusive [inhibitor, single point] | –
CC(C)N1CC(C(=O)Nc2nc3ccccc3s2)CC1=O (stereo unspecified) | inconclusive [activator, single point] | –
O=c1n(S(=O)(=O)c2cccc3cccnc23)c2ccccc2n1S(=O)(=O)c1cccc2cccnc12 | inconclusive [inhibitor, full curve, poor fit] | –
CC(C)c1nn2c(N)c(/C=C3\C=Nc4ccccc43)c(=O)nc2s1 | – | inactive: 6.01%
Cc1c(OCC(=O)N[C@H](C(=O)O)c2ccccc2)ccc2c3c(c(=O)oc12)CCCC3 | – | inactive: -2.23%
Cc1ccc(N=C2NC(=O)/C(=C\c3ccco3)S2)cc1 | inconclusive [activator, partial curve] | –
CCC[C@@H]1C[C@@]1(CCC)[C@@H](NP(=O)(c1ccccc1)c1ccccc1)c1ccc(C(=O)OC)cc1 | inconclusive [inhibitor, single point] | –
CC(C)c1ccc(-c2noc(C3CCCN(C(=O)c4ccc(F)cc4F)C3)n2)cc1 (stereo unspecified) | active: 8.91 µM | –
CCn1ncc(Br)c1C(=O)Nc1nccs1 | inconclusive [inhibitor, partial curve] | –
C[C@@H]1C(=O)O[C@H]2[C@H](O)[C@@]34[C@H]5C[C@@H](C(C)(C)C)[C@]36[C@@H](OC(=O)[C@@H]6O)O[C@@]4(C(=O)O5)[C@@]12O | – | inactive: -0.586%
COc1cc(CN2CCCC(CO)(Cc3cccc(Cl)c3)C2)cc2c1OCO2 (stereo unspecified) | inconclusive [inhibitor, single point] | –
S=c1[nH]cnc2scc(-c3ccc(Cl)cc3)c12 | active: 1 µM | –
O=C(CCCn1cncn1)N1CCCC(N2CCN(c3ccc(F)cc3)CC2)C1 (stereo unspecified) | – | inactive: 0.273%
S=C(Nc1ccccc1)Nc1ccc(Br)cc1 | inconclusive [inhibitor, single point] | –
O=C(CCl)NCCCCCCCCCNC(=O)CCl | inconclusive [inhibitor, single point] | –
CCCN(CCC)S(=O)(=O)c1ccc(C(=O)Nc2cc3oc4ccccc4c3cc2OC)cc1 | inconclusive [activator, single point] | –
COc1cc(-c2nnc(SCC(=O)c3ccc(C)cc3)o2)cc(OC)c1OC | – | inactive: -4.69% [at 0.365 µM]
Cc1ccsc1/C=N/NC(=O)Cn1cnc2ccccc21 | inconclusive [inhibitor, single point] | –

SMILES | Potency | activity, negative = inhibition
COc1ccc(CNC(=O)c2cc(-c3cccs3)on2)cc1 | inconclusive [inhibitor, partial curve, poor fit] | –
Cc1cc2nc(CCN(C(=S)NCC(C)C)C3CCCC3)[nH]c2cc1C | inconclusive [inhibitor, single point] | –
CCn1c2ccccc2c2cc(NC(=O)c3cccc(OC)c3)ccc21 | – | inactive: -0.565%
c1cc[n+](CCC[n+]2ccccc2)cc1 | – | inactive: -2.97%
CC1CC(C)CN(S(=O)(=O)c2ccc(C(=O)Nc3nnc(C4CC4)o3)cc2)C1 (stereo unspecified) | active: 0.631 µM | –
COc1ccc(CCNC(=S)N2CCC(Cc3ccccc3)CC2)cc1OC | inconclusive [inhibitor, single point] | –
COc1ccc(CN2C(=NC(=O)CCc3ccccc3)SC3CS(=O)(=O)CC32)cc1 (stereo unspecified) | inconclusive [inhibitor, single point] | –
CN(C)S(=O)(=O)N1CCc2ccc(NC(=O)c3ccc(C(F)(F)F)cc3)cc2C1 | inconclusive [inhibitor, partial curve] | –
COc1ccccc1NC(=S)N/N=C/c1ccc(O)cc1 | active: 7.08 µM | –
CC(=O)N1CCC2(CCCN(c3ccccn3)C2)CC1 | – | inactive: 7.46%
COc1cc(COc2cc(N)c(Cl)cc2C(=O)CCC2CCN(CCNS(C)(=O)=O)CC2)cc(OC)c1 | active: 15.8 µM | –
CN(C)C(CNC(=S)Nc1ccc(Cl)cc1)c1cccnc1 (stereo unspecified) | – | inactive: 5.36%
Cc1cc([N+](=O)[O-])ccc1NC(=O)/C=C/c1cccs1 | inconclusive [activator, full curve, poor fit] | –
O=c1[nH]c2cc3c(cc2cc1C(c1nnnn1CC1CCCO1)N1CCCC1)OCO3 (stereo unspecified) | – | inactive: 5.54%
COC(=O)c1[nH]c2cccc(C)c2c1NC(=O)CN1CCN(C(=O)c2ccco2)CC1 | inconclusive [inhibitor, partial curve, poor fit] | –
CCC(=O)Nc1ccc(C(=O)NNC(=O)COc2cc(C)ccc2C)cc1 | inconclusive [activator, single point] | –
COc1cccc(Nc2nc(-c3sc(NC(=O)CC(C)C)nc3C)cs2)c1 | active: 17.8 µM | –
Cc1nc2c(ccc3nc(NC(=O)C(c4ccccc4)c4ccccc4)sc32)s1 | active: 5.01 µM | –
COc1ccc(N2C(=O)C3C(C2=O)C(C(=O)c2ccccc2)N2CCCC32)cc1 (stereo unspecified) | inconclusive [inhibitor, single point] | –
Cn1cccc1C(=O)Nc1nc(-c2ccccn2)cs1 | active: 3.98 µM | –
CC12CCC(C(=O)NNC(=O)c3ccccc3)(OC1=O)C2(C)C (stereo unspecified) | inconclusive [activator, partial curve] | –
COc1ccc(CCNC(=O)C(=O)NCC2OCCN2S(=O)(=O)c2ccc(C)cc2)cc1OC (stereo unspecified) | active: 10 µM | –
CC1CCCCN1C(=O)Cn1cnc2cc([N+](=O)[O-])ccc2c1=O (stereo unspecified) | – | inactive: 4.36%
